Measurements: the supplement of paper PMC4967469
Lines with a small IC50 respond at low doses; a limit (>, <) means that the fit lies beyond the doses tested. AUC, from the same fit, is the share of area under the viability curve across the 256-fold dose range; the more sensitive the line, the further below 1. For part of these data: Any top dose called inferred was derived from the fitted curves, not read from the paper.

Tests used:
Test in all cases: Viability of human cancer cell lines after 72 h of drug (GDSC screen)
[1] = compound: COc1cc2nccc(Oc3ccc(NC(=O)Nc4cc(C)on4)c(Cl)c3)c2cc1OC [AV-951]; conditions: top dose 0.128 µM; top dose inferred
Description: (§1)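 Human cancer cell lines in 384-well plates, medium with 10% serum, drug for 72 h over a 256-fold dose range (nine 2-fold or five 4-fold steps up to the top dose). Adherent lines were fixed and stained with the nucleic acid dye Syto60, suspension lines read with resazurin; signal relative to control wells, capped at 0 and 100%. One two-parameter sigmoid per drug and line, fitted in a mixed model over all curves with the slope shared within a line.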

[2] = compound: CCc1cncnc1N1CCN(Cc2nc3ccc(C(F)(F)F)cc3[nH]2)CC1 [PF-4708671]; conditions: top dose 10 µM; top dose inferred
Description: as §1

[3] = compound: CC(=O)Nc1cccc(-n2c(=O)n(C3CC3)c(=O)c3c(Nc4ccc(I)cc4F)n(C)c(=O)c(C)c32)c1 [Trametinib]; conditions: top dose 1 µM
Description: as §1

[4] = compound: CCN1CCN(Cc2ccc(NC(=O)c3ccc(C)c(/C=C/c4cnc5[nH]ccc5c4OC)c3)cc2C(F)(F)F)CC1 [HG-6-64-1]; conditions: top dose 5.12 µM; top dose inferred
Description: as §1

[5] = compound: O=C(NC(COc1ccc2[nH]c(=O)[nH]c2c1)c1ccccc1)c1cccn(Cc2ccc(F)c(F)c2)c1=O [KIN001-244]; conditions: top dose 20 µM; top dose inferred
Description: as §1

[6] = compound: CCNC(=O)C[C@@H]1N=C(c2ccc(Cl)cc2)c2cc(OC)ccc2-n2c(C)nnc21 [I-BET-762]; conditions: top dose 20 µM; top dose inferred
Description: as §1

Cell Line	AUC [1]	IC50 [1] [µM]	AUC [2]	IC50 [2] [µM]	AUC [3]	IC50 [3] [µM]	AUC [4]	IC50 [4] [µM]	AUC [5]	IC50 [5] [µM]	AUC [6]	IC50 [6] [µM]
PCI-15A (head and neck, adherent)	0.987	> 0.128	0.866	9.1	0.459	0.0482	0.758	1.79	0.973	> 20	0.985	> 20
PCI-30 (head and neck, adherent)	0.982	> 0.128	0.976	> 10	0.849	> 1	0.857	> 5.12	0.938	> 20	0.981	> 20
PCI-38 (head and neck, adherent)	0.985	> 0.128	0.917	> 10	0.456	0.0473	0.785	2.2	0.896	> 20	0.946	> 20
PE/CA-PJ15 (head and neck, adherent)	0.985	> 0.128	0.959	> 10	0.287	0.0148	0.927	> 5.12	0.938	> 20	0.986	> 20
PL4 (pancreas, adherent)	0.983	> 0.128	0.968	> 10	0.194	0.0074	0.975	> 5.12	0.955	> 20	0.987	> 20
PL18 (pancreas, adherent)	0.986	> 0.128	0.901	> 10	0.083	< 0.00391	0.869	4.64	0.932	> 20	0.78	8.17
RCM-1 (large intestine, adherent)	0.984	> 0.128	0.926	> 10	0.268	0.0116	0.957	> 5.12	0.979	> 20	0.985	> 20
RD (rhabdomyosarcoma, adherent)	0.985	> 0.128	0.968	> 10	0.204	0.00753	0.761	1.99	0.817	12.5	0.83	14.2
RERF-GC-1B (stomach, adherent)	0.968	> 0.128	0.973	> 10	0.651	0.173	0.647	0.862	0.835	15.4	0.933	> 20
